{
  "source": "paper PMC10668032",
  "note": "The list shows a part of the results. At the low end of the ranking, values are background and their order means little.",
  "data": [
    {"molecular_target": "SIX1 homeodomain (reference allele) (UniProt Q15475)", "test": "universal protein binding microarray", "conditions": "Universal all-10-mer PBM (8x60K, AMADID 030236), 300 nM GST-tagged protein, Alexa Fluor 488 anti-GST; buffer, salt, pH and temperature not stated; high values mean tight binding; most listed sequences are background and not binding sites; double strand, one strand shown", "units": {"binding signal": "E-score"}, "values": [
      {"sequence": "AAGTCGAA", "binding signal": -0.256},
      {"sequence": "AAATCCAG", "binding signal": 0.0128},
      {"sequence": "CAAAGCAG", "binding signal": -0.0229},
      {"sequence": "AATTGCAC", "binding signal": -0.0168},
      {"sequence": "CGACATAA", "binding signal": -0.215},
      {"sequence": "CAAAAGCG", "binding signal": -0.211},
      {"sequence": "CCGGGTGC", "binding signal": 0.102},
      {"sequence": "GTACCTTA", "binding signal": -0.0988},
      {"sequence": "ATGTACTA", "binding signal": 0.00732},
      {"sequence": "GTTCATGA", "binding signal": -0.0278},
      {"sequence": "CGCCTGAC", "binding signal": -0.101},
      {"sequence": "AAAAGTAT", "binding signal": 0.204},
      {"sequence": "ACATCAAA", "binding signal": -0.134},
      {"sequence": "ATCCATGA", "binding signal": 0.273},
      {"sequence": "ACCTCATA", "binding signal": 0.106},
      {"sequence": "GTGCACAA", "binding signal": -0.245},
      {"sequence": "AGGAAGTA", "binding signal": -0.0386},
      {"sequence": "ATTTGAGG", "binding signal": -0.199},
      {"sequence": "CTGGCACA", "binding signal": -0.263},
      {"sequence": "AGAGAGCT", "binding signal": -0.143},
      {"sequence": "AAAAGCGC", "binding signal": -0.219},
      {"sequence": "AAAACTAC", "binding signal": 0.137},
      {"sequence": "ACAATCAT", "binding signal": -0.0395},
      {"sequence": "ACAGAGCG", "binding signal": -0.243},
      {"sequence": "CGAGACTC", "binding signal": 0.092},
      {"sequence": "CCCGTCAA", "binding signal": -0.266},
      {"sequence": "AATATTAA", "binding signal": 0.187},
      {"sequence": "CAACTCGC", "binding signal": -0.128},
      {"sequence": "GACCCCTC", "binding signal": 0.0959},
      {"sequence": "AGTGTGCA", "binding signal": -0.132},
      {"sequence": "AAACTCTT", "binding signal": -0.322},
      {"sequence": "GTAAGCAA", "binding signal": -0.0961},
      {"sequence": "TCTGACCA", "binding signal": -0.11},
      {"sequence": "ATGCACGC", "binding signal": 0.0639},
      {"sequence": "ATTATCCA", "binding signal": 0.176},
      {"sequence": "ATGCTGGA", "binding signal": 0.0334},
      {"sequence": "CGCCCATA", "binding signal": 0.136},
      {"sequence": "TAGTGCCA", "binding signal": -0.0812},
      {"sequence": "AGCTCTCG", "binding signal": -0.0693},
      {"sequence": "CGTAATGA", "binding signal": 0.0306},
      {"sequence": "GCGGCAAC", "binding signal": -0.191},
      {"sequence": "ACTTTCAA", "binding signal": -0.21},
      {"sequence": "GGAAACAC", "binding signal": -0.0804},
      {"sequence": "TACGTCAA", "binding signal": 0.0433},
      {"sequence": "CAGTTGTA", "binding signal": -0.105},
      {"sequence": "GTGAACAA", "binding signal": -0.127},
      {"sequence": "AACTTACA", "binding signal": -0.0133},
      {"sequence": "ATCTCTGC", "binding signal": 0.185},
      {"sequence": "ATAACGGG", "binding signal": -0.167},
      {"sequence": "CACACGTG", "binding signal": -0.0797},
      {"sequence": "TGATTGAA", "binding signal": -0.0643},
      {"sequence": "AGATAGAA", "binding signal": 0.00317},
      {"sequence": "GATCTTGC", "binding signal": 0.229},
      {"sequence": "CTACTGTC", "binding signal": -0.153},
      {"sequence": "GCTGTGAA", "binding signal": -0.152},
      {"sequence": "AGGCGATC", "binding signal": 0.271},
      {"sequence": "AGGAGGAG", "binding signal": -0.0312},
      {"sequence": "ACGAAGGC", "binding signal": -0.277},
      {"sequence": "TAACTTCA", "binding signal": 0.048},
      {"sequence": "ACGATTCT", "binding signal": 0.0925},
      {"sequence": "GGCTACAC", "binding signal": 0.000295},
      {"sequence": "GCCGCTCC", "binding signal": -0.127},
      {"sequence": "AAAACAGC", "binding signal": -0.159},
      {"sequence": "AGGGTACG", "binding signal": 0.0799},
      {"sequence": "TAGGATAA", "binding signal": 0.21},
      {"sequence": "CGGGTTAC", "binding signal": 0.08},
      {"sequence": "GGTGGAAA", "binding signal": -0.17},
      {"sequence": "AAGAAGAT", "binding signal": 0.143},
      {"sequence": "GAACCGCC", "binding signal": -0.0988},
      {"sequence": "GAAGTGCA", "binding signal": -0.275},
      {"sequence": "GTTGGAGA", "binding signal": 0.0797},
      {"sequence": "CGGCACTC", "binding signal": -0.172},
      {"sequence": "CACGGAAA", "binding signal": -0.306},
      {"sequence": "CATTCGTC", "binding signal": -0.105},
      {"sequence": "AATCCATT", "binding signal": 0.118},
      {"sequence": "AGACCAAG", "binding signal": -0.0978},
      {"sequence": "CTCTGGTA", "binding signal": 0.096},
      {"sequence": "GTCACAAC", "binding signal": -0.167},
      {"sequence": "CCTCCCTA", "binding signal": 0.0724},
      {"sequence": "GACAATTA", "binding signal": -0.0583},
      {"sequence": "ACATATAT", "binding signal": 0.252},
      {"sequence": "TAAGCCAA", "binding signal": -0.107},
      {"sequence": "GCCGTCGC", "binding signal": -0.284},
      {"sequence": "AGGCGGAA", "binding signal": -0.276},
      {"sequence": "CATGTACG", "binding signal": 0.118},
      {"sequence": "CGCACAAC", "binding signal": 0.015}
    ]}
  ]
}
